Data reported in the RNAGym collection of RNA variant scans (doi:10.7554/elife.90254).
The source gives no read counts; variants with many changes may rest on few reads.

B1: LINE1-full (parent)
chain: UACGUAGGUGGUUUUCCCCUGAUAGUGCUAAGGGGGCCUGGAAGUUUGGACUGGGCAGAGCUCAACACAGCGUGGCAAAGUGGCUGUGGCUAGACUGCCUCUCUGGAUUCCUCGUCACUCAGCAGGGCAUCUCUGAGAGAAAUGCC

Variants of: B1
Assay: self-cleavage, relative activity (ratio to wild type); higher = more cleavage; in vitro, sequencing; the parent is a self-cleaving ribozyme

Variant | self-cleavage
U87C A107U U130C | 0.14
A78G U85C U115C A136U | 0.14
A79U U85C G88A | 0.08
A92U G114A A124U | 0.43
G82A A94G U143C | 0.22
U85A A92G C95U U143A | 0.66
A79U U87C U102C | 0.09
A94G A107G U112C A138G | 0.77
A78G U81C A124U | 0.28
U81A U115A U134C A140G | 2.87
G83A U87C U115A | 0.19
U81A U109C A124G | 1.56
A78U U87G U112C U119C U143A | 0.14
A92G U119A A129G | 0
A94G A129U A140G | 0.38
G86A U115C A141G U143A | 0.03
A94G G106A U143C | 0.31
U87A A124U C133U | 0.08
A78G U85A A142G | 0.1
A78G G93U U104A | 0.07
U81A U87C U119A A142G | 0.26
A79G U96C U112C A124G U143A | 0
A78G A117U A129G A140G | 1.05
A79G U91G A138G | 0

Variant | self-cleavage
A77U A141G A142G | 1.02
A77U U81A C95A | 0.11
U85A U100C A117U | 0.09
U91A U102A U112A A124G | 0.55
U81A U96A U115C | 0.08
A79G A107U U132A G135A | 0
A94G A121G A141G | 0.45
A78U U100C A140G | 2.7
G89A G126U A138G A142G | 0.05
U87A U130A A141G | 0.4
U91C A140G A142G U143A | 0.43
A78G U96C A117G G139C A140G | 0.59
U81C A92G A121U | 0
U87C U112C A138G | 0.53
C84U U109A U130C | 0.15
U91C C116U U130C | 0.66
A78G C99U U132C A138G | 0.85
U81C U102C U109A | 1.1
U87A U96C A129G A136G | 0.18
A78C C116U U119C | 2
A92C A94G U134A | 0.48
U81A U85C U112C | 0.31
A94G A107G G114U | 0.11
U87C A124U A138G | 0.51

Variant | self-cleavage
A94G A129G A138G | 0.81
G86A U102G U115C | 0
U91G U102C A140G | 0.18
U81A U115C C123U A138G | 2.44
U81C U108C G127A | 2.27
U81C U108C A140G A142U | 0.24
U81C U112C U132A U143C | 2.12
G86C A117U U132A | 0.03
A79G U96C A124U | 0.18
U87C U109C A138G | 0
U81C U115C U143C | 0
U87C U115G U119A | 0
A79G U104A U109A A141G U143C | 0.77
U81A U100A C123U | 1.77
G93A U100C U115C | 0.02
A79G A92U A141G | 0.39
U91A U104C A117G | 0
G83A U108C A117G A140U | 1.59
A94G U108C A141G | 0
A92G C123U A138G | 0
G80U U130C U134A | 1.75
A78G G86U A140U C146U | 0.05
A92C U96C G127U A142G | 0
A78G A140G A142G | 0.56

Variant | self-cleavage
U85C A124G A129U | 0.21
G86A U109A A141G | 0.07
G86A C113U A124G | 0.08
U81A U91C A121G C133U | 0.32
A79G C120U A138G | 1.59
G88A U104G A136G | 0.07
C90A U100C U109C A142G | 0
U81G G86U U91C C103U | 0.03
U85C U96C A136U | 0.09
A78G U96C A142G | 0.31
A94G C131U A140G | 0.22
U81A U112A A138G | 2.03
A79U U81A U85C G86A U130C | 0.05
U87A A92U A136G | 0.07
A78G A94G G97U A117U | 0.04
A92G U100G C118U | 0
U87C G88U U109C | 0.11
U87C U104A A124G | 0.09
A94G G97A U104C A136C A140G | 0.11
G82A U109C U119C | 2.01
U85C A129C U143A | 0.34
U85C C99U U143C | 0.06
U91C U104G G114A | 0.67
U81C U85C U130C | 1.25

Variant | self-cleavage
G93C U102C A129G A142G | 0.12
U85C U119C A129G | 0
G82A U100C U102C | 2.42
A77U U81C U109A | 1.43
A77U A141G U143C | 0.61
U85A A92G U108C U143C | 0
A94G C131U U132C | 0.56
U85C C99U U104C | 0.17
C84A G114A A140G | 0.06
A79G U85C C113A | 0.12
U85A A121C A129U | 0.06
A79G U87A U109C U130A | 0.02
U81A U85A C90A | 0.13
U85C U109C A136G | 0.08
U81A C103U U119A | 0.78
A79G A129U A136U | 1.08
G82A A94G G114A | 0.24
U87C A136G A141G | 0.39
A78G A107G C146A | 1.79
A92U U96C U100C A140G | 0.42
U87A U91C U100C | 0.79
U87A U96A U100C | 0.16
A77U U104C A124C | 1.93
U85C U87A U134A | 0

Variant | self-cleavage
A94G U119C U130A | 0.36
U87C G89A U115C U119A | 0.02
A78U U96A A140G | 0.11
A79G C123A U134C | 1.22
A78G A79G A136G | 1.03
A78G U87A U112C U130C A140G | 0
A79G U81A C90U A121U A124G | 0.06
U87C U134C A142G | 0.33
G82U A92G C120U A136G | 0.04
A78G A79G A124G | 0
A79G U119C A142G | 1.44
A78U U115C A138G | 2.17
A79G U87G A92U | 0.05
A79G U115A A141G | 1.64
C90U G97A G122C | 0.03
U85A A142G C145U | 0.07
A79U A117U A124U A138G | 2.8
A78G U109C U115C | 1.31
A78G U132C A141G | 2.01
U91C C131U A138G | 0.9
U85A U115A A117G | 0.06
A79G U96C U109C | 0
A94U G114U A129G | 0.32
A79G A94G A129G | 0.77

Variant | self-cleavage
A79G C90A U104C | 0.02
A79U U104C A107G | 2.97
C84G C99U U143A | 0.1
U87A U130A U132C A140G | 0
A79G A138U A140G C146U | 1.02
C84U U134G C146U | 0.07
G82U U104A A129G | 1.41
U87A U119A G144A | 0.18
U91A C99U A142G | 0.26
U87C A129U A138U | 0.22
U85C A94G U115A | 0.14
A78G G80A U104A A141G | 2.77
A79G U102A U104A | 1.16
U81C U100C U119G | 0
A92G C98U U115C A136G | 0.07
U85A A138G U143A | 0.1
G88A A92U U130C | 0
G93U A136G A138G | 0.06
A79G A94G G122U A140U | 0.3
U87C U96C C110A | 0.15
C90U G106U U119A A138U U143C | 0.04
U81C G106A U108A | 1.78
A78U G97A G114A C128U | 0.08
